Measured values as given in PubChem BioAssay AID1768 (National Center for Advancing Translational Sciences (NCATS), 2009).
Hit rate of the full screen: of about 270,000 compounds, about 620 (0.23%) were called active. This list was built around the results that the source calls inconclusive (neither active nor inactive); the mix of calls is not that of the screen. Calls follow the shape of the dose curve; as a rule, active = well fitted inhibition curve with a large enough effect in the polarisation, with a control signal flat (not every such curve was filed as active); inconclusive = small, poorly fitted or top-dose-only effect, or effect the other way, or a change in a side signal; inactive = no such curve, though single readings can be large or run the other way; the % refers to the polarisation. Potencies beside an inconclusive call are fits to weak or partial responses and may not hold up. “Side channel” marks fits to a control or component signal instead of the main read-out.

target: Menin (Homo sapiens) (UniProt O00255); experiment: qHTS Assay for Inhibitors Targeting the Menin-MLL Interaction in MLL Related Leukemias: Competition With Texas Red Labeled MLL-derived Mutant Peptide; conditions: fluorescence polarization; FP activity change, negative = inhibition: at 61.6 µM (top of the series); as to FP activity change, negative = inhibition: % of control where 0% means no effect
UniProt O00255, sequence (O00255 whole entry, looked up): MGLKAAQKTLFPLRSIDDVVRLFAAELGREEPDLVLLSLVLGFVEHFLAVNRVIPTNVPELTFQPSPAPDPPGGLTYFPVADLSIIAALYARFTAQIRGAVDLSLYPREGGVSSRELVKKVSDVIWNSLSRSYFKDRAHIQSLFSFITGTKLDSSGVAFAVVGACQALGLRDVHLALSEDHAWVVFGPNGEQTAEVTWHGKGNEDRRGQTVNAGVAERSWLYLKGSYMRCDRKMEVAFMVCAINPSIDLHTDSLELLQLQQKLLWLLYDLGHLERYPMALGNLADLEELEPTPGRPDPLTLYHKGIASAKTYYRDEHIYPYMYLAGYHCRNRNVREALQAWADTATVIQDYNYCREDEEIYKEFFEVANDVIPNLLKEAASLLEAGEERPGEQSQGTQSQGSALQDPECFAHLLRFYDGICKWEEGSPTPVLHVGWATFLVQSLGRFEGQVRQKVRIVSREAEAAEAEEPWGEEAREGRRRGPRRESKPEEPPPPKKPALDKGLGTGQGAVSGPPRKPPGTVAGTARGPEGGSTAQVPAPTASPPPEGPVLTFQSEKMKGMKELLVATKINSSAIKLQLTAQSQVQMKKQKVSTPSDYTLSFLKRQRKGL
Potency is read from the fitted curve at half-maximal effect; tags tell the direction and shape of the fitted curve or compound fluorescence and quenching.

Row | Structure (SMILES) | Potency | FP activity change, negative = inhibition
1 | Cc1cc(C)n2c(SC/C(O)=C(\C#N)c3nc4ccccc4[nH]3)nnc2n1 | inconclusive: 25.1 µM [quencher, side channel, partial curve] | 
2 | O=[N+]([O-])c1ccc(N/N=C/c2cccc(O)c2)cc1 | inconclusive: 11.2 µM [quencher, side channel, partial curve] | 
3 | CCOC(=O)c1sc(NC(=O)CSc2nc(C)cc(-c3ccccc3)n2)c(C#N)c1C | inconclusive: 35.5 µM [quencher, side channel, single point] | 
4 | O=C1C2C3C=CC(CO)(O3)C2C(=O)N1c1ccc(-c2ccccc2)cc1 (stereo unspecified) | inconclusive: 8.91 µM [quencher, side channel, partial curve] | 
5 | CCOC(=O)CN1C(=O)S/C(=C/c2ccc(N3CCCCC3)o2)C1=O | inconclusive: 25.1 µM [inhibitor, partial curve, poor fit] | 
6 | O=C(COC(=O)CSc1cccc2cccc(Cl)c12)Nc1ncc(C(F)(F)F)cc1Cl | inconclusive: 14.1 µM [quencher, side channel, partial curve] | 
7 | O=C(NNS(=O)(=O)c1ccc(F)cc1)c1cc2ccccc2cc1O | inconclusive: 28.2 µM [quencher, side channel, single point] | 
8 | c1ccc(-c2ccc(CNC3CC3)cc2)cc1 | inconclusive: 25.1 µM [fluorescent, side channel, partial curve] | 
9 | COc1ccc(C2C3=C(CC(C)(C)CC3=O)Oc3ncn(Cc4ccco4)c(=N)c32)cc1 (stereo unspecified) | inconclusive: 12.6 µM [inhibitor, partial curve] | 
10 | Cc1cc(=O)[nH]c(SCc2cccc3cccnc23)n1 |  | inactive: -5.99%
11 | Oc1csc(Cc2nc(-c3ccc(-c4ccccc4)cc3)cs2)n1 | inconclusive: 10 µM [quencher, side channel, partial curve] | 
12 | CCOC(=O)c1[nH]c(C)c(C(=O)Nc2ccc3c(c2)CCC3)c1C | inconclusive: 39.8 µM [fluorescent, side channel, single point] | 
13 | N[C@@]1(C(=O)O)CO[C@H]2[C@H](C(=O)O)[C@H]21 |  | inactive: 2.45%
14 | C/C(=N\Nc1nc2ccccc2s1)c1ccc2c(c1)OCO2 | inconclusive: 22.4 µM [quencher, side channel, partial curve] | 
15 | O=C(Nc1cn(-c2ccccc2)nc1-c1cccs1)c1ccco1 | inconclusive: 31.6 µM [quencher, side channel, single point] | 
16 | CCOC(=O)C1CCN(c2c(C(=O)c3ccccc3)cnc3ccc(CC)cc23)CC1 | inconclusive: 5.62 µM [fluorescent, side channel, partial curve] | 
17 | O=C(NC(=S)N1CCCc2ccccc21)c1ccccc1 | inconclusive: 7.08 µM [inhibitor, full curve] | 
18 | COc1ccccc1CNC(=O)C(=O)Nc1ccc(C(=O)N2CCC(C)CC2)cc1 | inconclusive: 14.1 µM [fluorescent, side channel, partial curve] | 
19 | CCc1ccc2[nH]c(=O)c(CN(Cc3nnnn3C3CCCC3)C3CCCCC3)cc2c1 |  | inactive: 0.413%

Row | Structure (SMILES) | Potency | FP activity change, negative = inhibition
20 | Cc1cccc(NC(=O)/C(C#N)=C\c2cn(CC(=O)O)c3ccccc23)c1 | inconclusive: 28.2 µM [quencher, side channel, partial curve] | 
21 | C1=C(c2ccccc2)Nc2nnnn2C1 | inconclusive: 39.8 µM [inhibitor, single point] | 
22 | CN(c1ccccc1)c1nc(N)c([N+](=O)[O-])c(Nc2cccc(F)c2)n1 | inconclusive: 1.58 µM [inhibitor, full curve, poor fit] | 
23 | COc1ccccc1CNc1ccc([N+](=O)[O-])cc1C | inconclusive: 39.8 µM [quencher, side channel, single point] | 
24 | O=c1c(-c2cc(O)c(O)c(O)c2)coc2cc(O)c(O)c(O)c12 | inconclusive: 28.2 µM [quencher, side channel, single point] | 
25 | CC(=O)C1=C(C)Nc2ncnn2C1c1cccc(O)c1 (stereo unspecified) | inconclusive: 44.7 µM [inhibitor, partial curve, poor fit] | 
26 | COc1ccc(Cc2[nH]n3c(=O)c(Cl)c(C)nc3c2-c2ccccc2)cc1 | inconclusive: 8.91 µM [quencher, side channel, partial curve] | 
27 | O=C(Nc1ccccc1)c1nn(-c2ccccc2)c(=O)cc1C(F)(F)F | inconclusive: 39.8 µM [inhibitor, single point] | 
28 | Cc1ccc(NC(=S)NCc2ccccc2)cc1[N+](=O)[O-] | inconclusive: 28.2 µM [quencher, side channel, single point] | 
29 | CCc1ccc(-n2c(=O)c3ccc(C(=O)NCCc4ccccc4)cc3n(CC(N)=O)c2=O)cc1 | inconclusive: 25.1 µM [fluorescent, side channel, single point] | 
30 | O=C(N/N=C/c1ccccn1)c1ccccc1 | inconclusive: 3.55 µM [inhibitor, partial curve] | 
31 | CCCCCCN(C(=O)CCCCCN1C(=O)NC(C2CC2)C(C(=O)OCc2ccccc2)=C1C)C(C(=O)NCCCC)c1ccc(OCC(=O)OC)c(C(=O)OC)c1 (stereo unspecified) | inconclusive: 1.41 µM [fluorescent, side channel, full curve] | 
32 | N#Cc1cccc(-c2nc3cnc(N4CCOCC4)nc3n(C3CC3)c2=O)c1 | inconclusive: 4.47 µM [fluorescent, side channel, full curve, poor fit] | 
33 | O=C(N/N=C/c1cc(Cl)ccc1O)c1ccccc1Br | inconclusive: 15.8 µM [quencher, side channel, partial curve] | 
34 | N#Cc1cc(-c2ccccc2)cn(Cc2c(Cl)cccc2Cl)c1=O |  | inactive: 8.08%
35 | CSc1ccccc1NC(=S)N/N=C/c1cccn1Cc1ccc(F)cc1 | inconclusive: 7.94 µM [quencher, side channel, partial curve] | 
36 | C=C(C)CSc1nc2sc3c(c2c(=O)n1-c1ccccc1)CCN(C)C3 | inconclusive: 12.6 µM [fluorescent, side channel, partial curve] | 
37 | Oc1ccc(-c2nc3ncccn3c2Nc2ccc3c(c2)OCCO3)cc1 | inconclusive: 31.6 µM [quencher, side channel, single point] | 
38 | CCOC(=O)/C=c1\s/c(=C\c2ccc3cc(OC)ccc3c2)c(=O)n1CC(=O)NCc1ccc2c(c1)OCO2 | inconclusive: 3.98 µM [inhibitor, partial curve] | 

Row | Structure (SMILES) | Potency | FP activity change, negative = inhibition
39 | N#Cc1ccc2c(c1)C[C@]1(c3ccsc3)Oc3c(c(=O)oc4ccc(F)cc34)C2O1 | inconclusive: 3.98 µM [quencher, side channel, partial curve] | 
40 | O=C(NCCc1ccccc1)c1ccc2nc(-c3ccco3)c(-c3ccco3)nc2c1 | inconclusive: 5.01 µM [quencher, side channel, partial curve] | 
41 | CC(=O)c1c(O)cc(O)cc1O | inconclusive: 20 µM [quencher, side channel, partial curve] | 
42 | O=C(NNC(=S)NC(=O)c1ccco1)c1ccc(NC(=O)c2ccccc2)cc1 | inconclusive: 17.8 µM [quencher, side channel, partial curve] | 
43 | CSc1nc(N)nc(SCC(=O)c2ccccc2)c1C#N | inconclusive: 17.8 µM [quencher, side channel, partial curve] | 
44 | COc1cccc(C(=O)Nc2nc3ccc(S(C)(=O)=O)cc3s2)c1 | inconclusive: 12.6 µM [quencher, side channel, partial curve] | 
45 | O=C(OCc1ccc(Cl)c(Cl)c1)c1cccnc1Cl | inconclusive: 39.8 µM [inhibitor, single point] | 
46 | COc1cc2c(cc1NC(=O)CSc1nccn1C)oc1ccccc12 | inconclusive: 8.91 µM [quencher, partial curve] | 
47 | COc1cccc(CN2CCN(S(=O)(=O)c3ccc(NC(C)=O)cc3)CC2)c1OC | inconclusive: 4.47 µM [fluorescent, side channel, partial curve] | 
48 | N=C1C(c2nc3ccccc3s2)=C(O)CN1NC(=O)c1ccccc1[N+](=O)[O-] | inconclusive: 11.2 µM [quencher, side channel, partial curve] | 
49 | C=CCOC(/C=C/c1ccccc1)CC (stereo unspecified) | inconclusive: 39.8 µM [inhibitor, partial curve] | 
50 | Cc1cc(NC(=S)NC(=O)CC(C)C)ccc1Br |  | inactive: 10.6%
51 | COC(=O)c1ccc(Cn2nc(-c3cc(C)ccc3C)ccc2=O)cc1 | inconclusive: 15.8 µM [fluorescent, side channel, partial curve] | 
52 | COC(=O)c1ccc(C(=O)OC)c(NC(=O)CN2CCN(c3ccccc3)CC2)c1 | inconclusive: 39.8 µM [inhibitor, partial curve, poor fit] | 
53 | Brc1ccccc1C1Nc2cccc3cccc(c23)N1 | inconclusive: 22.4 µM [quencher, side channel, partial curve] | 
54 | CCc1ccc(N=c2c([N+](=O)[O-])nn(-c3ccccc3)n2O)cc1 | inconclusive: 28.2 µM [quencher, side channel, single point] | 
55 | Cc1ccc(O)c(-c2cc(C(=O)Nc3ccc(S(=O)(=O)N4CC(C)OC(C)C4)cc3)[nH]n2)c1 (stereo unspecified) | inconclusive: 2.51 µM [quencher, side channel, full curve] | 
56 | COCCCNC(=S)Nc1cc2oc3ccccc3c2cc1OC | inconclusive: 14.1 µM [quencher, side channel, partial curve] | 
